To fix the notation:
B1: OR4K15 (parent)
chain: GUUAACGGUCAUAGGCCAUGGAAACUAGGAGCACCAUUUCGCUGCCAGUGAAGAAAUGAACAAAGAAAAUCUGGGCCAGGCAGGCAUCAAAAGAAAUAGUCUUGCGCUCAACCAGAAAGUCUGUAAUCAUUUUAAGGGUA

The source gives no read counts; variants with many changes may rest on few reads.

The variants in the data set derive from B1. Description: self-cleavage, relative activity (ratio to wild type); higher = more cleavage; in vitro, sequencing; the parent is a self-cleaving ribozyme.
As to GCUAACGGUCAUAGGCCAUGGAAACUAGGAGCACCAUUUCGCUGCCAGUGAAGGAAUGAACAAAGAAAAUCUGGGCCAGGCAGGCGUCAAAAGAAAUAUCCUUGCGCUCAACCAGAAAGUCCGUAAUCAUUUUAAAGGUA [U2C A54G A86G G99U U100C U122C G136A], the self-cleavage is 0.17.

Turning to GCUAACGGUCAUAGGCCAUGGAAACUAGGAGCACCAUUUCGCUGCCAGUGAAGAAAUGGACAAAGAAAAUCUGGGCCAGGCAGGCAUCAAAAGAAAUAGUCUUGCGCUCAACCAGAAAGUCUGUAAUCUUUUUAAGGGUA [U2C A59G A129U], the self-cleavage was 0.57. Under GCUAACGGUCAUAGGCCAUGGAAACUAGGAGCACCAUUUCGCUGCCAGUGAAGAAAUGAACGAAGAAAAUCUGGGCCAGGCAGGCAUCAAAAGAAAUAGUCUUGCGCUCAACCAGAAAGUCUGUGAUCAUUUUAAGGGUG [U2C A62G A125G A140G] stands 0.3; under GCUAACGGUCAUAGGCCAUGGAAACUAGGAGCACCAUUUCGCUGCCAGUGAAGAAAUGAACAAAGGAAAUCUGGGCCAGGCAGGCAUCUAGAGAGAUAGUCUUGCGCUCAACCAGAAAGUCUGUAAUCAUUUUAAGGGUA [U2C A66G A89U A91G A95G], 0.78; under GCUAACGGUCAUAGGCCAUGGAAACUAGGAGCACCAUUUCGCUGCCAGUGAAGAAAUGAACAGAGAAAAUCUGGGCCAGGCAGGCAUCAAAAGAAAUAGUCUUGCGCUCAACCAGAAAGCCUGUAAUCAUUUUAAGGGGA [U2C A63G U120C U139G], 0.97.

Regarding GCUAACGGUCAUAGGCCAUGGAAACUAGGAGCACCAUUUCGCUGCCAGUGAAGAAAUGAACAAAGGAAAUCUGGGCCGGGCAGGCAUCAAAAGAAAUAGACUUGCGCUCAAUCGGAAAGUCUGUAAUCAUUUUAAGGGUA [U2C A66G A78G U100A C112U A114G], the self-cleavage was found to be 0.02. Under GCUAACGGUCAUAGGCCAUGGAAACUAGGAGCACCAUUUCGCUGCCAGUGAAGGAAUGAACAAAGAAGAUCUGGGCCAGGCAGGCAUCAAAAGAAAUAGUCUUGCGCUCAACCAGAAAGACCGUAAUCAUUUUAAGGGUA [U2C A54G A68G U120A U122C] stands 1.14. Under GCUAACGGUCAUAGGCCAUGGAAACUAGGAGCACCAUUUCGCUGCCAGUGAAGAAAUGAACAUAGAAAAUCUGGGCCAGGCAGGCAUCAAAAGGAAUAGUCUUGCGCUCAACCAGAAAGUCUGUAAUCAUUUUAAGGGUA [U2C A63U A94G] stands 1.98; under GCUAACGGUCAUAGGCCAUGGAAACUAGGAGCACCAUUUCGCUGCCAGUGAAGAAAUGAACAAGGAAAAUCUGGGCCAGGCAGGCAUCAAAAGAAAUAGUCUUGCGCUCAACCAGAAAGGCCGUAAUCAUUUUAAGGGUA [U2C A64G U120G U122C], 1.44; under GCUAACGGUCAUAGGCCAUGGAAACUAGGAGCACCAUUUCGCUGCCAGUGAAGAAAUGAACAAAGACAAUCUGGGCCAGGCAGGCAUCAAAAGAAAUGGUCUUGCGCUCAACCAGAAAGUCUGUAAUCAUUUUAAGGGUA [U2C A67C A98G], 0.78. Under GCUAACGGUCAUAGGCCAUGGAAACUAGGAGCACCAUUUCGCUGCCAGUGAAGAAGUGAACAAAGAAAAUCUGGGCCAGGCAGGCAUCAAAAGAAAUAGUCUUGCGCUCGACCAGAAAGUCUGUAAUCAUUUUAAGGGUA [U2C A56G A110G] stands 0.17.

On to GCUAACGGUCAUAGGCCAUGGAAACUAGGAGCACCAUUUCGCUGCCAGUGAAGUAAUGAACAAAGAAAAUCUGGGCCAGGCAGGCAUCAAAAGAAAUAGUCUUGCGCUCAACCGGAAAGUCUGUAAUCAUUUUAAGGGUA [U2C A54U A114G], for which the self-cleavage amounted to 0.32.

As to GCUAACGGUCAUAGGCCAUGGAAACUAGGAGCACCAUUUCGCUGCCAGUGAAGAAAUGGACAAAGAAAAUCUGGGCCAGGCAGGCAUCAAAAGAAAUAGUCUUGCGCUCAACCAGAAAGUCUGUAAUCAUUCUAAGGGUA [U2C A59G U132C], the self-cleavage was 0.32. Consider GCUAACGGUCAUAGGCCAUGGAAACUAGGAGCACCAUUUCGCUGCCAGUGAAGAAGUGAACAAAGAAAAUCUGGGCCAGGCAGGCAUCAAAAGAAAUAGUCUUGCGCUCAACCAGAAAGUCUGUAAUCAUUUUAGGGGUA [U2C A56G A135G], for which the self-cleavage is 0.86. Under GCUAACGGUCAUAGGCCAUGGAAACUAGGAGCACCAUUUCGCUGCCAGUGAAGAAAUGAACAAGGAAAAUCUGGGCCAGGCAGGCAUCAAAGGAAAUAGUCUUGCGCUCAACCAGAAAGUCUGUAACCAUUUUAAGGGUA [U2C A64G A92G U127C] stands 0.73; under GCUAACGGUCAUAGGCCAUGGAAACUAGGAGCACCAUUUCGCUGCCAGUGAAGAAAUGAACAAAGCAAAUCUGGGCCAGGCAGGCAUCAAAAGAAAUAGUCUUGCGCUCGACCAGAAAGUCUGUAAUCAUUUUAAGGGUA [U2C A66C A110G], 0.19; under GCUAACGGUCAUAGGCCAUGGAAACUAGGAGCACCAUUUCGCUGCCAGUGAAGAAAUGAACGUAGAAAAUCUGGGCCAGGCAGGCAUCAAAAGAAAUAGUCUUGCGCUCAACCAGAAAGUCUGUAAUCAUUUUAAGGGUA [U2C A62G A63U], 1.52. Under GCUAACGGUCAUAGGCCAUGGAAACUAGGAGCACCAUUUCGCUGCCAGUGAAGAAAUGGGCAUAGAAAAUCUGGGCCAGGCAGGCAUCAAAAGAAAUAGUCUUGCGCCCAACCAGAAAGUCUGUAAUCAUUUUAAGGGUA [U2C A59G A60G A63U U108C] stands 0.04.

Consider GCUAACGGUCAUAGGCCAUGGAAACUAGGAGCACCAUUUCGCUGCCAGUGAAGAAAUGAACAAAGAGAAUCUGGGCCAGGCAGGCAUCAGAAGAAAUAGUCUUGCGCUCAGCCAGAAGGUCUGUAAUCAUUUUAAGGGUA [U2C A67G A90G A111G A118G], for which the self-cleavage was determined as 0.01. As to GCUAACGGUCAUAGGCCAUGGAAACUAGGAGCACCAUUUCGCUGCCAGUGAAGAAAUGGACAAAGAAAAUCUGGGCCAGGCAGGCAUCAAAAGAGAUAGUCUUGCGCUCAACCAGAAAGUCUGUAAUCAUUUUAAGGGUA [U2C A59G A95G], the self-cleavage was 1.23. Under GCUAACGGUCAUAGGCCAUGGAAACUAGGAGCACCAUUUCGCUGCCAGUGAAGAAGUGAACAAAGAAAAUCUGGGCCAGGCAGGCAUCAAAAGAAAUAGCCUUGCGCUCAACCAGAAAGUCUGUAAUCAUUUUAAGGGUA [U2C A56G U100C] stands 0.62.

In the case of GCUAACGGUCAUAGGCCAUGGAAACUAGGAGCACCAUUUCGCUGCCAGUGAAGAAGUGUACAAAGAAAAUCUGGGCCAGGCAAGCAUCAAAAGAAAUAGUCCUGCGCUCAACCAGAAAGUCUGUAACCAUUUUAAGGGUA [U2C A56G A59U G83A U102C U127C], the self-cleavage was 0.18. For the variant GCUAACGGUCAUAGGCCAUGGAAACUAGGAGCACCAUUUCGCUGCCAGUGAAGAAAUGAACAAAGAAGAUCUGGGCCAGGCAGGCAUCAAAAGAAAUAGUCUUGCGCUCAGCCAGAAAGUCUGUAAUCAUUUUAAGGGUA [U2C A68G A111G], the self-cleavage was 0.03. Under GCUAACGGUCAUAGGCCAUGGAAACUAGGAGCACCAUUUCGCUGCCAGUGAAGAAAUGAACAAAGAUAAUCUGGGCCAGGCAGGCAUCAAAAGAAAUAGUCUUGCGCUCAACCAGAAAGUCUGUAAUCACUUUAAGGGUA [U2C A67U U130C] stands 0.29; under GCUAACGGUCAUAGGCCAUGGAAACUAGGAGCACCAUUUCGCUGCCAGUGAAGAAAUGAGCAAAGAAAACCUGGGCCAGGCAGGCAUCAAAAGAAAUAGUCUUGCGCUCAACCAGAAAGUCUGUAAUCAUUUUAAGGGUA [U2C A60G U70C], 0.46; under GCUAACGGUCAUAGGCCAUGGAAACUAGGAGCACCAUUUCGCUGCCAGUGAAGAGAUGAAUAAAGAAAAUCUGGGCCAGGCAGGCAUCAAAAGAAUUAGUCUUGCGCUCAACCAGAAAGUCCGUAAUCAUUUGAAGGGUA [U2C A55G C61U A96U U122C U133G], 0.63. GCUAACGGUCAUAGGCCAUGGAAACUAGGAGCACCAUUUCGCUGCCAGUGAAGGAAUGAACAAAGAAAAUCUGGGCCUGGCAGGCAUCAAAAGAAAUAGUCUUGCGCCCAACCAGAAAGUCUGUAAUCAUUUUAAGGGUA [U2C A54G A78U U108C]: the self-cleavage came out at 0. Under GCUAACGGUCAUAGGCCAUGGAAACUAGGAGCACCAUUUCGCUGCCAGUGAAGAAAUGAACAAAGAAGAUCUGGGCCAGGCAGGCAUCAAAAGAAAUAGUCUUGCGCUCAACCAGGAAGUCUGUAAUCAUUUUAAGGGUA [U2C A68G A116G] stands 0.35; under GCUAACGGUCAUAGGCCAUGGAAACUAGGAGCACCAUUUCGCUGCCAGUGAAGAAAUGAACAAGGAAGAUCUGGGCCAGGCAGGCAUCGAAAGAAAUAGUCUUGCGCUCAACCAGAAAGUCUGUAAUCAUUUUAAGGGUA [U2C A64G A68G A89G], 0.77; under GCUAACGGUCAUAGGCCAUGGAAACUAGGAGCACCAUUUCGCUGCCAGUGAAGGAAUGAACAAAGAAGAUCUGGGCCAGGCAGGCAUCAAAAGAAAUAGUCUUGCGCUCAACCAGAAAGUCUGUAAUCAUUUUAAGGGUA [U2C A54G A68G], 1.47. Under GCUAACGGUCAUAGGCCAUGGAAACUAGGAGCACCAUUUCGCUGCCAGUGAAGGAAUGAACAAAGAAAAUCUGGGCCAGGCAGGCAUCAAAAGAAAUAGUCUUGCGCUCAACCAGAAAGUCUGUAAUCAUUAUAAGGGUA [U2C A54G U132A] stands 0.76; under GCUAACGGUCAUAGGCCAUGGAAACUAGGAGCACCAUUUCGCUGCCAGUGAAGAAAUGAACGAAGAAAAUCUGGGCCAGGCAGGCAUCAAAAGGAAUAGUCUUGCGCUCAACCAGAAAGUCUGUAAUCAUUUUAAGGGUA [U2C A62G A94G], 0.42; under GCUAACGGUCAUAGGCCAUGGAAACUAGGAGCACCAUUUCGCUGCCAGUGAAGGAAUGAACAAAGAAAAUCUGGGCCAGGCAGGCGUCAAAAGAAAUAGUCUUGCGCUCAACCAGAAAGUCUGUAAUCAUUUUAAGGGUA [U2C A54G A86G], 0.72. Under GCUAACGGUCAUAGGCCAUGGAAACUAGGAGCACCAUUUCGCUGCCAGUGAAGAAGUGAACAAAGAAAAUCUGGGCCAGGCAGGCUUCAAAAGAAAUAGUCUUGCGCUCAACCAGAAAGUCCGUAAUCAUUUUAAGGGUA [U2C A56G A86U U122C] stands 1.79; under GCUAACGGUCAUAGGCCAUGGAAACUAGGAGCACCAUUUCGCUGCCAGUGAAGAAAUGGACAAAGAAAAUCUGGGCCAGGCAGGCAUCAAAAGAAAUAGUCUUGCGCUCAACCAGAAAGUCUGUAAUCACUUUAAGGGUA [U2C A59G U130C], 0.22. GCUAACGGUCAUAGGCCAUGGAAACUAGGAGCACCAUUUCGCUGCCAGUGAAGAAAUGACCGAAGAAAAUCUGGGCCAGGCAGGCAUCAAGAGAAAUAGUCUUGCGCUCAACCAGAAAGUCUGUAAUCAUUUUAAGGGUA [U2C A60C A62G A91G]: the self-cleavage is 0.91.

Take GCUAACGGUCAUAGGCCAUGGAAACUAGGAGCACCAUUUCGCUGCCAGUGAAGAAAUGAGCAAUGAAAAUCUGGGCCAUGCAGGCAUCAAAAGAAAUAGUCUUGCGCUCAACCAGAAAGUCUGUAAUCAUUUUAAGGGUA [U2C A60G A64U G79U]: the self-cleavage stood at 0.17. Next, GCUAACGGUCAUAGGCCAUGGAAACUAGGAGCACCAUUUCGCUGCCAGUGAAGAAAUGAACAAAGAGAAUCUGGGCCAGGCAGGCAUCAAAAGAAAUAGUCUUGCGCUCAACCGGAAAGUCUGUAAUCAUUUUAAGGGUA [U2C A67G A114G]: 0.58; GCUAACGGUCAUAGGCCAUGGAAACUAGGAGCACCAUUUCGCUGCCAGUGAAGUAGUGAACAAAGAAAAUCUGGGCCAGGCAGGCAUCAAAAGAAAUAGUCUUGCGCUCAACCAGAAAGUCUGUAAUCGUUUUAAGGGUA [U2C A54U A56G A129G]: 0.25. Next, GCUAACGGUCAUAGGCCAUGGAAACUAGGAGCACCAUUUCGCUGCCAGUGAAGGAAUGAACAAAGAAAAUCUGGGCCAGCCAGGCAUCAAAAGAAAUAGUCUUGCGCUCAACCAGAAAGUCUGUAAUCAUUUUAAGGGUA [U2C A54G G80C]: 0.12. Next, GCUAACGGUCAUAGGCCAUGGAAACUAGGAGCACCAUUUCGCUGCCAGUGAAGAGAUGAACAAAGGAAAUCUGGGCCAGGCAGGCAUCAAAAGAAAUAGUCUUGCGCUCAACCAGAAAGUCUGUAAUCAUUUUAAGGGUA [U2C A55G A66G]: 1.23.

For the origin of these results see the RNAGym collection of RNA variant scans (doi:10.7554/elife.90254).
